{"source": "patent US20250376539A1", "about": "(KIRA PHARMACEUTICALS SUZHOU, published 2025)", "key": {"[1]": {"target": "T1, recombinant human complement C2 (NP_000054.2), C-terminal 6His-tag, made in house (CHO cell expression) (human, UniProt P06681 21-752)", "T1 construct": "a linker before the tag is not described; also called human C2; Human C2", "T1 sequence": "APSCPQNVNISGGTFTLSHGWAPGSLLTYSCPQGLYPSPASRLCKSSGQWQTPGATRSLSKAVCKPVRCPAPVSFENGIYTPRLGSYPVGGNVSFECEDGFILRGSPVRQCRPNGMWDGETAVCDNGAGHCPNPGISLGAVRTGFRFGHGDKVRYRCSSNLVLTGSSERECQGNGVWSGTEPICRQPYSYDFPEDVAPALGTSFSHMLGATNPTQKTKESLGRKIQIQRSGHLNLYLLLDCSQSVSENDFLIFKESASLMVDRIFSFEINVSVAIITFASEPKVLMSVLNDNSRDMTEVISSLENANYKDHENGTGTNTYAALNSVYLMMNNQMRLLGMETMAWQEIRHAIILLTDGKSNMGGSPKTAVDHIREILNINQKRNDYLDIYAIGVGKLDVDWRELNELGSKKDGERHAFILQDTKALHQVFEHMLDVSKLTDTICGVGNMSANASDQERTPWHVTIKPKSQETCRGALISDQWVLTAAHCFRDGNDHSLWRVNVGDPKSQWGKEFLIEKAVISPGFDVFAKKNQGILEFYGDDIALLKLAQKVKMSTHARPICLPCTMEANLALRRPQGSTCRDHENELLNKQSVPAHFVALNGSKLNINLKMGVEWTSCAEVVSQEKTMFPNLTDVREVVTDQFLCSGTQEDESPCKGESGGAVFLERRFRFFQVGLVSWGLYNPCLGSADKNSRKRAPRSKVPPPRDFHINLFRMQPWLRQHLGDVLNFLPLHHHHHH", "test": "BLI (Gator), antibody on probe; 600 s association at pH 7.4, 600 s dissociation at pH 7.4", "description": "(§1) The histidine mutant constructs in Table 4 were tested for their pH-dependent dissociation from human C2. Probe-immobilized anti-C2 antibodies were incubated with C2 at pH 7.4 for 600s, followed by a 600s dissociation period in K Buffer at pH 7.4 or pH 5.8. The data were processed and analyzed by the Gator evaluation software.\n(§2) Non-fusion mAb were used for comparison."}, "[2]": {"target": "T2, recombinant cynomolgus (cyno) complement C2 (XP_005553508.1), C-terminal 6His-tag, made in house (CHO cell … (cynomolgus monkey (Macaca fascicularis), UniProt P06681 21-752 (human entry)))", "T2 construct": "also called cyno C2; Cyno C2", "T2 chain": "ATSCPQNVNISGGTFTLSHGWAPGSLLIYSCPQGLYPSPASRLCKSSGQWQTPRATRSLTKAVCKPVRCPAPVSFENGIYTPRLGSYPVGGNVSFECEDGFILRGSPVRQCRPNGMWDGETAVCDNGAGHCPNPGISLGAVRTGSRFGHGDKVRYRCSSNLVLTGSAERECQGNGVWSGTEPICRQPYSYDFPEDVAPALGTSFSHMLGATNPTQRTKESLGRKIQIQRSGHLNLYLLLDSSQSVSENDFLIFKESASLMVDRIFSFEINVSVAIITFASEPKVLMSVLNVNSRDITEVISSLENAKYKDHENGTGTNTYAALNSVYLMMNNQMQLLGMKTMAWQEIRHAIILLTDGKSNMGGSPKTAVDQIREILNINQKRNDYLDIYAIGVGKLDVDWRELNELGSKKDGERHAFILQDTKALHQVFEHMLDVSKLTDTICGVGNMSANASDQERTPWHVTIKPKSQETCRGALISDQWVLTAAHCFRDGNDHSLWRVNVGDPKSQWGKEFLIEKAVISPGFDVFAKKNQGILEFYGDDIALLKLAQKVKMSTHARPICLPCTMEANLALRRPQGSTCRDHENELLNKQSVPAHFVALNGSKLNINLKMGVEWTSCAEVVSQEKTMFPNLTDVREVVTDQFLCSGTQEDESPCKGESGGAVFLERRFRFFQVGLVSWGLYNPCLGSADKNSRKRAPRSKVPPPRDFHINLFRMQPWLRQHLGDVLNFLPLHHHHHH", "test": "BLI (Gator), antibody on probe; 600 s association at pH 7.4, 600 s dissociation at pH 7.4", "description": "as §1, §2"}, "[3]": {"target": "T1, recombinant human complement C2 …", "test": "binding kinetics, neutral pH (BLI presumed)"}, "[4]": {"target": "T1, recombinant human complement C2 …", "test": "BLI (Gator), antibody on probe; 600 s association at pH 7.4, 600 s dissociation at pH 5.8", "description": "as §1, §2"}, "[5]": {"target": "T2, recombinant cynomolgus (cyno) …", "test": "BLI (Gator), antibody on probe; 600 s association at pH 7.4, 600 s dissociation at pH 5.8", "description": "as §1, §2"}, "[6]": {"target": "T2, recombinant cynomolgus (cyno) …", "test": "binding kinetics (BLI presumed)"}, "[7]": {"target": "T1, recombinant human complement C2 …", "test": "BLI (Gator); ratio of dissociation at pH 5.8 to pH 7.4", "description": "as §1, §2"}, "[8]": {"target": "T2, recombinant cynomolgus (cyno) …", "test": "BLI (Gator); ratio of dissociation at pH 5.8 to pH 7.4", "description": "as §1, §2"}}, "data": [{"binder": "3.2 H2-10 FH (Factor H 1-5 fusion with the representative pH dependent 3.2 H2-10) (other) chain 1: EVQLLESGGGLVQPGGSLRLSCAASGFTFRHYAMSWVRQAPGKGLEWVSLISGSGASTHYADSVKGRFTISRDNSENMLYLQMNSLRAEDTAVYYCAKDSLAVAGSEYFQHWGQGTLVTVSASTKGPSVFPLAPCSRSTSESTAALGCLVKDYFPEPVTVSWNSGALTSGVHTFPAVLQSSGLYSLSSVVTVPSSSLGTKTYTCNVDHKPSNTKVDKRVESKYGPP[human IgG4 Fc with S228P M428L N434A (EU numbers) not shown]EDCNELPPRRNTEILTGSWSDQTYPEGTQAIYKCRPGYRSLGNIIMVCRKGEWVALNPLRKCQKRPCGHPGDTPFGTFTLTGGNVFEYGVKAVYTCNEGYQLLGEINYRECDTDGWTNDIPICEVVKCLPVTAPENGKIVSSAMEPDREYHFGQAVRFVCNSGYKIEGDEEMHCSDDGFWSKEKPKCVEISCKSPDVINGSPISQKIIYKENERFQYKCNMGYEYSERGDAVCTESGWRPLPSCEEKSCDNPYIPNGDYSPLRIKHRTGDEITYQCRNGFYPATRGNTAKCTSTGWIPAPRCTLKP chain 2: SYVLTQAPSVSVAPGQTARITCGGNYFGGKSVHWYQQRPGQAPVLVVYDDSDRPSGIPERFSGSKSGNTATLAISRVEAGDEAAYYCQVYDTSSDHWVFGGGTKLTVL", "values": [{"measurement": "Dissociation (%) pH 7.4", "setting": "[1]", "result": 5.11, "unit": "%"}, {"measurement": "Dissociation (%) pH 7.4", "setting": "[2]", "result": 7.19, "unit": "%"}, {"measurement": "Kd", "setting": "[3]", "result": 0.0539, "unit": "nM"}, {"measurement": "koff", "setting": "[3]", "result": "1.85e-05", "unit": "s⁻¹"}, {"measurement": "kon", "setting": "[3]", "result": 343000, "unit": "M⁻¹ s⁻¹"}, {"measurement": "Dissociation (%) pH 5.8", "setting": "[4]", "result": 56.1, "unit": "%"}, {"measurement": "Dissociation (%) pH 5.8", "setting": "[5]", "result": 61.4, "unit": "%"}, {"measurement": "Kd", "setting": "[6]", "result": 0.129, "unit": "nM"}, {"measurement": "koff", "setting": "[6]", "result": "5.63e-05", "unit": "s⁻¹"}, {"measurement": "kon", "setting": "[6]", "result": 436000, "unit": "M⁻¹ s⁻¹"}, {"measurement": "Fold dissociation pH 5.8/pH 7.4", "setting": "[7]", "result": 11, "unit": "fold"}, {"measurement": "Fold dissociation pH 5.8/pH 7.4", "setting": "[8]", "result": 8.53, "unit": "fold"}]}, {"binder": "3.2FH (Factor H 1-5 fusion with 3.2; FH1-5 fused to the heavy chain C-terminus) (other, Antibody-factor H fusion protein) heavy: EVQLLESGGGLVQPGGSLRLSCAASGFTFRHYAMSWVRQAPGKGLEWVSLISGSGASTFYADSVKGRFTISRDNSENMLYLQMNSLRAEDTAVYYCAKDSLAVAGSEYFQHWGQGTLVTVSSASTKGPSVFPLAPCSRSTSESTAALGCLVKDYFPEPVTVSWNSGALTSGVHTFPAVLQSSGLYSLSSVVTVPSSSLGTKTYTCNVDHKPSNTKVDKRVESKYGPP[human IgG4 Fc with S228P M428L N434A (EU numbers) not shown]EDCNELPPRRNTEILTGSWSDQTYPEGTQAIYKCRPGYRSLGNIIMVCRKGEWVALNPLRKCQKRPCGHPGDTPFGTFTLTGGNVFEYGVKAVYTCNEGYQLLGEINYRECDTDGWTNDIPICEVVKCLPVTAPENGKIVSSAMEPDREYHFGQAVRFVCNSGYKIEGDEEMHCSDDGFWSKEKPKCVEISCKSPDVINGSPISQKIIYKENERFQYKCNMGYEYSERGDAVCTESGWRPLPSCEEKSCDNPYIPNGDYSPLRIKHRTGDEITYQCRNGFYPATRGNTAKCTSTGWIPAPRCTLKP light: SYVLTQAPSVSVAPGQTARITCGGNYFGGKSVHWYQQRPGQAPVLVVYDDSDRPSGIPERFSGSKSGNTATLAISRVEAGDEAAYYCQVYDTSSDHWVFGGGTKLTVLGQPKAAPSVTLFPPSSEELQANKATLVCLISDFYPGAVTVAWKADSSPVKAGVETTTPSKQSNNKYAASSYLSLTPEQWKSHRSYSCQVTHEGSTVEKTVAPTECS", "values": [{"measurement": "Dissociation (%) pH 7.4", "setting": "[1]", "result": 4.91, "unit": "%"}, {"measurement": "Dissociation (%) pH 7.4", "setting": "[2]", "result": 4.93, "unit": "%"}, {"measurement": "Dissociation (%) pH 5.8", "setting": "[4]", "result": 10.5, "unit": "%"}, {"measurement": "Dissociation (%) pH 5.8", "setting": "[5]", "result": 16, "unit": "%"}, {"measurement": "Fold dissociation pH 5.8/pH 7.4", "setting": "[7]", "result": 2.13, "unit": "fold"}, {"measurement": "Fold dissociation pH 5.8/pH 7.4", "setting": "[8]", "result": 3.25, "unit": "fold"}]}]}
